T1: cynomolgus 5T4 on cells (cynomolgus macaque, UniProt Q4R8Y9 35-420)
T1 construct: whole, on cells; also called CHO-K1/cynomolgus 5T4 transfectants
T1 sequence (looked up): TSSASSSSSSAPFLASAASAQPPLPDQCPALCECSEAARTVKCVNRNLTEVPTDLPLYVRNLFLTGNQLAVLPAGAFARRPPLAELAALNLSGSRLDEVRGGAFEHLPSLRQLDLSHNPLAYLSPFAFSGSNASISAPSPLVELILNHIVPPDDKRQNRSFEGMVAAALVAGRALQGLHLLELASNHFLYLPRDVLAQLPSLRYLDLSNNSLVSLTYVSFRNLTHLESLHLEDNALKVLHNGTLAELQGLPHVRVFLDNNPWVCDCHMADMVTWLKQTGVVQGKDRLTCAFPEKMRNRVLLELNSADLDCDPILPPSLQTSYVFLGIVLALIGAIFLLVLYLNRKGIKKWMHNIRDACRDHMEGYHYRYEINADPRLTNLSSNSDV

T2: human 5T4 on cells (human, UniProt Q13641 32-420)
T2 construct: also called TPBG; hu5T4
T2 sequence: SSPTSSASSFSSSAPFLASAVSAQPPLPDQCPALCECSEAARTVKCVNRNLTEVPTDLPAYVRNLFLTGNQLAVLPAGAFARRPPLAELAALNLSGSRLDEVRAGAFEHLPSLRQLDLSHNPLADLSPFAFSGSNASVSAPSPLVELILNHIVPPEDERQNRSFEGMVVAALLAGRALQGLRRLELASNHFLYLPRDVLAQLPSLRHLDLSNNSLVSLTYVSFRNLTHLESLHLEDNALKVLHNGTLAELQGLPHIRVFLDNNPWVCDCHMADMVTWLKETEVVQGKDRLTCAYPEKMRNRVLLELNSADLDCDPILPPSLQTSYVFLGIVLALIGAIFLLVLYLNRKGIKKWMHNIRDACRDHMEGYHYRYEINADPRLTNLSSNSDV

B1: ALG.APV-209 (bispecific antibody)
chain: EVQLLESGGGLVQPGGSLRLSCAASGFTFSHGSMYWVRQAPGKGLEWVSSISSGSGSTYYADSVKGRFTISHDNSKNTLYLQMNSLRAEDTAVYYCARSSYYGSYYSIDYWGQGTLVTVSSGGGGSGGGGSGGGGSGGGGSDIQMTQSPSSLSASVGDRVTITCRASQSISSYLNWYQQKPGKAPKLLIYAASSLQSGVPSRFSGSGSGTDFTLTISSLQPEDFATYYCQQYYDNLPTFGQGTKLEIKEPKSSDKTHTCPPCPAPEAAGAPSVFLFPPKPKDTLMISRTPEVTCVVVDVSHEDPEVKFNWYVDGVEVHNAKTKPREEQYNSTYRVVSVLTVLHQDWLNGKEYKCAVSNKALPAPIEKTISKAKGQPREPQVYTLPPSRDELTKNQVSLTCLVKGFYPSDIAVEWESNGQPENNYKTTPPVLDSDGSFFLYSKLTVDKSRWQQGNVFSCSVMHEALHNHYTQKSLSLSPGSGGGGSGGGGSGGGGSPS[letters of about 100 residues left out]YYGGYYSAWMDYWGQGTLVTVSSGGGGSGGGGSGGGGSGGGGSDIQMTQSPSSLSASVGDRVTITCRASQSISSFLNWYQQKPGKAPKLLIYAASSLQSGVPSRFSGSGSGTDFTLTISSLQPEDSATYYCQQTYGYLHTFGQGTKLEIKR
notes: Optimized ADAPTIR scFv-Fc-scFv homodimer, no stabilizing disulfide in the 1210 scFv
B2: ALG.APV-208 (bispecific antibody)
chain: EVQLLESGGGLVQPGGSLRLSCAASGFTFSHGSMYWVRQAPGKGLEWVSSISSGSGSTYYADSVKGRFTISHDNSKNTLYLQMNSLRAEDTAVYYCARSSYYGSYYSIDYWGQGTLVTVSSGGGGSGGGGSGGGGSGGGGSDIQMTQSPSSLSASVGDRVTITCRASQSISSYLNWYQQKPGKAPKLLIYAASSLQSGVPSRFSGSGSGTDFTLTISSLQPEDFATYYCQQYYDNLPTFGQGTKLEIKEPKSSDKTHTCPPCPAPEAAGAPSVFLFPPKPKDTLMISRTPEVTCVVVDVSHEDPEVKFNWYVDGVEVHNAKTKPREEQYNSTYRVVSVLTVLHQDWLNGKEYKCAVSNKALPAPIEKTISKAKGQPREPQVYTLPPSRDELTKNQVSLTCLVKGFYPSDIAVEWESNGQPENNYKTTPPVLDSDGSFFLYSKLTVDKSRWQQGNVFSCSVMHEALHNHYTQKSLSLSPGSGGGGSGGGGSGGGGSPS[letters of about 100 residues left out]YYGGYYSAWMDYWGQGTLVTVSSGGGGSGGGGSGGGGSGGGGSDIQMTQSPSSLSASVGDRVTITCRASQSISSYLNWYQQKPGKAPKLLIYAASSLQSGVPSRFSGSGSGTDFTLTISSLQPEDSATYYCQQTYGYLHTFGQGTKLEIKR
notes: Optimized ADAPTIR scFv-Fc-scFv homodimer
B3: ALG.APV-179 (bispecific antibody)
chain: EVQLLESGGGLVQPGGSLRLSCAASGFTFSHGSMYWVRQAPGKGLEWVSSISSGSGSTYYADSVKGRFTISHDNSKNTLYLQMNSLRAEDTAVYYCARSSYYGSYYSIDYWGQGTLVTVSSGGGGSGGGGSGGGGSGGGGSDIQMTQSPSSLSASVGDRVTITCRASQSISSYLNWYQQKPGKAPKLLIYAASSLQSGVPSRFSGSGSGTDFTLTISSLQPEDFATYYCQQYYDNLPTFGQGTKLEIKSSEPKSSDKTHTCPPCPAPEAAGAPSVFLFPPKPKDTLMISRTPEVTCVVVDVSHEDPEVKFNWYVDGVEVHNAKTKPREEQYNSTYRVVSVLTVLHQDWLNGKEYKCAVSNKALPAPIEKTISKAKGQPREPQVYTLPPSRDELTKNQVSLTCLVKGFYPSDIAVEWESNGQPENNYKTTPPVLDSDGSFFLYSKLTVDKSRWQQGNVFSCSVMHEALHNHYTQKSLSLSPGSGGGGSGGGGSGGGGSPS[letters of about 100 residues left out]YYGGYYSAWMDYWGQGTLVTVSSGGGGSGGGGSGGGGSGGGGSDIQMTQSPSSLSASVGDRVTITCRASQSISSFLNWYQQKPGKAPKLLIYAASSLQSGVPSRFSGSGSGTDFTLTISSLQPEDSATYYCQQTYGYLHTFGQGTKLEIKR
notes: as for B2
B4: ALG.APV-010 (bispecific antibody)
chain: EVQLLESGGGLVQPGGSLRLSCAASGFTFSYGSMYWVRQAPGKGLEWVSSISSGSGSTYYADSVKGRFTISRDNSKNTLYLQMNSLRAEDTAVYYCARSSYYGSYYSIDYWGQGTLVTVSSGGGGSGGGGSGGGGSGGGGSDIQMTQSPSSLSASVGDRVTITCRASQSISSYLNWYQQKPGKAPKLLIYAASSLQSGVPSRFSGSGSGTDFTLTISSLQPEDFATYYCQQYYDNLPTFGQGTKLEIKSSSEPKSSDKTHTCPPCPAPEAAGAPSVFLFPPKPKDTLMISRTPEVTCVVVDVSHEDPEVKFNWYVDGVEVHNAKTKPREEQYNSTYRVVSVLTVLHQDWLNGKEYKCAVSNKALPAPIEKTISKAKGQPREPQVYTLPPSRDELTKNQVSLTCLVKGFYPSDIAVEWESNGQPENNYKTTPPVLDSDGSFFLYSKLTVDKSRWQQGNVFSCSVMHEALHNHYTQKSLSLSPGSGGGGSGGGGSGGGGSPSDIQMTQSPSSLSASVGDRVTITCRASQSISSYLNWYQQKPGKAPKLLIYAASSLQSGVPSRFSGSGSGTDFTLTISSLQPEDFATYYCQQTYGYLHTFGQGTKLEIKGGGGSGGGGSGGGGSGGGGS[letters of about 100 residues left out]YYGGYYSAWMDYWGQGTLVTVSS
notes: ADAPTIR scFv-Fc-scFv homodimer, 1210 scFv in VL-VH order; also called 1618 VHVL -Fc-1210 VLVH

Assays:
[1] = target: T3, human CD137 on cells (human, UniProt Q07011 24-255); test: cell-based or functional assay
[2] = target: T1, cynomolgus 5T4 on cells; test: flow cytometry, CHO-K1/cynomolgus 5T4 transfectants, labelled anti-human IgG secondary, MFI (mean)
Method: (§1) Binding studies were performed by standard flow cytometry-based staining procedures two cell lines expressing 5T4:CHO-K1 cells (obtained from Alligator) transduced with human or cynomolgus macaque 5T4 and SKOV-3 human ovarian adenocarcinoma cells which express (human) 5T4. All labeling and washes were performed in U-bottom 96-well plates in saline buffer with 0.1% BSA and 2 mM EDTA. Cell were plated at approximately 100,000 cells per well and incubated with a range of 100 nM to 0.05 nM concentrations of test molecules in […], for 30 minutes on ice. Cells were washed three times then incubated for another 30 min on ice with fluorescently-labeled secondary polyclonal antibody, F(ab′)² goat anti-human IgG (Jackson ImmunoResearch Laboratories). The cells were then washed twice and the samples acquired in a BD LSRII or a Symphony A3 flow cytometer. The sample files were analyzed using FlowJo software; the mean fluorescence intensity (MFI-mean) or median fluorescence intensity (MFI-median) of the live population of cells in each well was calculated after gating on live cells (forward vs side scatter). Nonlinear regression analysis to determine EC₅₀ values was performed in GraphPad Prism 6® graphing and statistics software.

[3] = target: T3, human CD137 on cells; test: flow cytometry, CHO-K1/human CD137 cells, PE anti-human IgG Fc secondary, MFI (mean)
T3 sequence (Q07011 24-255 limits assumed): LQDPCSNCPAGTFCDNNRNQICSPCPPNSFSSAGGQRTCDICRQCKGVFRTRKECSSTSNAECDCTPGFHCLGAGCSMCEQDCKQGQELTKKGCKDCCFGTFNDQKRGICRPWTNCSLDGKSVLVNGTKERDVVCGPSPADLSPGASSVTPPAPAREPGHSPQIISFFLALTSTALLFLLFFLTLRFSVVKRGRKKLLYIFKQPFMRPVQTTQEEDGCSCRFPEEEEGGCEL
Method: Binding studies on CHO-K1 cells lines expressing CD137 were performed by standard flow cytometry-based staining procedures. CHO-K1 cells (generated by Alligator) were transfected with human or cynomolgus macaque CD137. A typical experiment would label approximately 100,000 cells per well, in 96-well plates, with a range of 100 nM to 0.05 nM binding molecule in 50 μL of saline buffer with 2% BSA and 2 mM EDTA, for 30 min on ice, followed by washes and incubation with PE-labeled secondary antibody, goat anti-human IgG Fcγ ([…]), for 20 minutes on ice. Signal from bound molecules was detected using a LSR-II™ or a Symphony A3 flow cytometer (BD Biosciences) and analyzed by FlowJo flow cytometry analysis software. […] Nonlinear regression analysis to determine EC₅₀ values was performed in GraphPad Prism 6® graphing and statistics software.

[4] = target: T2, human 5T4 on cells; test: flow cytometry, murine CT26 cells expressing human 5T4, labelled anti-human IgG secondary, MFI (mean)
[5] = target: T2, human 5T4 on cells; test: flow cytometry, SKOV-3 cells (endogenous human 5T4), labelled anti-human IgG secondary, MFI (mean)
Method: as §1

[6] = target: T4, cynomolgus CD137 on cells (cynomolgus macaque, UniProt A9YYE7 24-254); test: flow cytometry, CHO-K1 cells expressing cynomolgus CD137, PE anti-human IgG Fc secondary, MFI (median)
T4 construct: whole, on cells; also called CHO-K1/cynomolgus CD137 cell line; cynomolgus monkey CD137 on CD3-stimulated primary CD8 T cells
T4 sequence (A9YYE7 entry or part of it): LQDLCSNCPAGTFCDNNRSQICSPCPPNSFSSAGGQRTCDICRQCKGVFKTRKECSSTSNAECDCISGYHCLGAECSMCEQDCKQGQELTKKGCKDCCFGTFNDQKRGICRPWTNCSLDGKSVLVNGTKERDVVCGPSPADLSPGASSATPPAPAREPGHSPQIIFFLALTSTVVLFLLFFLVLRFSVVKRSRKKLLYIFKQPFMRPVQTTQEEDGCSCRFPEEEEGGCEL
Method: (§2) Binding studies on CHO-K1 cells lines expressing CD137 were performed by standard flow cytometry-based staining procedures. CHO-K1 cells (generated by Alligator) were transfected with human or cynomolgus macaque CD137. A typical experiment would label approximately 100,000 cells per well, in 96-well plates, with a range of 100 nM to 0.05 nM binding molecule in 50 μL of saline buffer with 2% BSA and 2 mM EDTA, for 30 min on ice, followed by washes and incubation with PE-labeled secondary antibody, goat anti-human IgG Fcγ ([…]), for 20 minutes on ice. Signal from bound molecules was detected using a LSR-II™ or a Symphony A3 flow cytometer (BD Biosciences) and analyzed by FlowJo flow cytometry analysis software. Median fluorescence intensity (MFI-median) of bound molecules on live cells was determined after exclusion of doublets cells. Nonlinear regression analysis to determine EC₅₀ values was performed in GraphPad Prism 6® graphing and statistics software.

[7] = target: T1, cynomolgus 5T4 on cells; test: flow cytometry, CHO-K1 cells expressing cynomolgus 5T4, labelled anti-human IgG secondary, MFI (median)
Method: as §1

[8] = target: T3, human CD137 on cells; test: flow cytometry, CHO-K1 cells expressing human CD137, PE anti-human IgG Fc secondary, MFI (median)
Method: as §2

[9] = target: T2, human 5T4 on cells; test: flow cytometry, CHO-K1 cells expressing human 5T4, labelled anti-human IgG secondary, MFI (mean)
Method: as §1

[10] = target: T2, human 5T4 on cells; test: flow cytometry on human 5T4-expressing cells
[11] = target: T3, human CD137 on cells; test: cell-based or functional assay; remark: listed apart in the source

Binder	CD137 reporter assay with HCC1143 cells, EC50 against ALG.APV-004 [1]	EC50 [2]	Maximum MFI [2]	EC50 [3]	Maximum MFI [3]	EC50 [4]	Maximum MFI [4]	EC50 [5]	Maximum MFI [5]	EC50 [6]	CD137 reporter assay with HCC1143 cells, EC50 against ALG.APV-006 and ALG.APV-004 [1]	EC50 [7]	Maximum MFI [7]	EC50 [8]	EC50 [9]	Maximum MFI [9]	EC50 [10]	CD137 Reporter Assay EC50 [11]
B1	10 fold lower EC50	8.9 nM	25400	0.56 nM	8630	2.9 nM	1710											
B2	10 fold lower EC50	7.4 nM	24900	0.6 nM	8670	2.1 nM	1460											
B3	10 fold lower EC50	10.1 nM	26800	0.39 nM	8210	2.5 nM	1740	15.8 nM	1780	1.7 nM	≤ 6 fold lower EC50	51 nM	31100	0.9 nM	10.1 nM	14200		
B4																	50.9 nM	2.6 nM
